The values that follow come from article PMC4242493.

This is one part of the list. The list includes weakly bound sequences.

The target in this test is MaxL homodimer (UniProt P61244). The test is described as follows: universal protein-binding microarray (PBM). The following applies: PBS-based mixture, 10 nM His-tagged protein dimer, 2% milk, 200 ng/uL BSA, 50 ng/uL salmon testes DNA, 0.02% TX-100; detection with Alexa 488 anti-His …; high values mean tight binding; most listed sequences are background and not binding sites; double strand, one strand shown.
Chain of UniProt P61244 (P61244 whole entry): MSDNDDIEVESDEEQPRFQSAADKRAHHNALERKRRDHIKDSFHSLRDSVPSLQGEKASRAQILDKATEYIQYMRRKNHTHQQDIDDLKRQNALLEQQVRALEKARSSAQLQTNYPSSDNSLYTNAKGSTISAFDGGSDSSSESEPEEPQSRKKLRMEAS
Turning to ATCGGTTG, the binding signal (normalized occupancy) turned out to be 0.075.
CGATGGCA: the binding signal (normalized occupancy) is 0.0733.
As for CAATTAGA, the figure is 0.0751.
As for GCTTGTGA, the binding signal (normalized occupancy) turned out to be 0.074.
The value for CGCTGTAC was 0.0766.
Turning to ACTAATGG, the binding signal (normalized occupancy) came to 0.0751.
The value for GCGATCTA was 0.075.
As to CACTTACG, the binding signal (normalized occupancy) came to 0.0712.
The value for ATCGTTCA was 0.0794.
As for TCGCAAAA, the binding signal (normalized occupancy) was found to be 0.0729.
The value for ACGTCGCA was 0.0756; that for ACCCTTAT was 0.0822; that for GGAGTCTA was 0.0742.
Consider ACTTAATC, for which the binding signal (normalized occupancy) was 0.0742.
As for CTCGCGAC, the figure is 0.077; as for ACGATCCA, 0.0807.
The value for AACCAAGG was 0.0712.
As for GACGTGGC, the figure is 0.0846; as for CGGGAACA, 0.0761; as for CGTGACCA, 0.0992.
Regarding TAGCCACA, the binding signal (normalized occupancy) came to 0.0813.
As for CACAAGTG, the figure is 0.0771; as for GGCCAATA, 0.0771.
As for GGGCCACA, the figure is 0.0741; as for CGCTCGGC, 0.0706; as for CTGAGCTA, 0.0702.
In the case of CACTACAC, the binding signal (normalized occupancy) came to 0.0835.
The value for CCAAGAAG was 0.0679; that for ATACCTCA was 0.0778; that for ACACCACA was 0.083.
In the case of AGAATCAA, the binding signal (normalized occupancy) is 0.0736.
As for GTATTTAA, the figure is 0.0808.
The value for CCCGTGTA was 0.0861.
The value for AAGCGGCT was 0.069; that for CCAGGAGA was 0.0744; that for ATCACCCG was 0.0787.
On to ACTGTAAG, for which the binding signal (normalized occupancy) stood at 0.0733.
As for GACCTGCA, the figure is 0.071.
As for AATTACAG, the figure is 0.0778.
As for CAGCACAC, the binding signal (normalized occupancy) came to 0.0857.
On to GGTGAACC, for which the binding signal (normalized occupancy) came to 0.0721.
The value for CGCGTACG was 0.0773.
The value for CACCCGTC was 0.0736.
The value for CCCCTTGC was 0.0765.
As for CTTCTGCA, the binding signal (normalized occupancy) stood at 0.0742.
For CGCCAAAA, the binding signal (normalized occupancy) stood at 0.0642.
For AACGTGAA, the binding signal (normalized occupancy) came out at 0.0849.
As for AAGTCCTC, the figure is 0.07; as for AAAGGGTA, 0.0823; as for CCGAGCCG, 0.0668.
The value for AGTGACGA was 0.0757; that for GGTTCGTA was 0.0711.
The value for ATATTTCC was 0.0852; that for GACGTCCC was 0.0673.
As to ATCTCCAA, the binding signal (normalized occupancy) turned out to be 0.0742.
As for CGGAGGAG, the figure is 0.0725.
GTAAGGTA: the binding signal (normalized occupancy) was 0.0763.
The value for ACGTGCCG was 0.0929; that for GTCCTCAC was 0.0765; that for AACAGGTA was 0.079.
The value for GATGGTGC was 0.0806; that for AAAAAAGT was 0.0748.
Take CTATCAGC: the binding signal (normalized occupancy) was 0.0763.
For GGAGTTGA, the binding signal (normalized occupancy) stood at 0.0728.
The value for AGTGGAAT was 0.0749; that for GCAGAAGA was 0.0723; that for GCCACCTA was 0.0707.
For the sequence CGATTAGA, the binding signal (normalized occupancy) was found to be 0.0757.
As for AGGACTCG, the figure is 0.0681; as for AAGTGTCT, 0.073; as for CGCGAGCC, 0.0667.
The value for TCAGACGA was 0.0739.
As for AGAAACGA, the figure is 0.0802.
Turning to ACGTCCTC, the binding signal (normalized occupancy) was found to be 0.0742.
The value for AGTACATC was 0.0798; that for GCACTCAC was 0.0818; that for ATAGGCCA was 0.0738.
The value for CCACATAG was 0.0803; that for GCTGCCTA was 0.072; that for GCCGCGCA was 0.0695.
Regarding CATTTCAC, the binding signal (normalized occupancy) stood at 0.0771.
Consider ATCAATGA, for which the binding signal (normalized occupancy) came out at 0.0835.
Turning to ACTTAGTA, the binding signal (normalized occupancy) was 0.0721.
For the sequence ATCCAACC, the binding signal (normalized occupancy) was found to be 0.0754.
The value for CGAGTCTA was 0.0708; that for GACTAAGC was 0.066; that for AGTGATCC was 0.0717.
The value for CGATTGCA was 0.0745; that for CCAACCAC was 0.0828; that for CCACTGTA was 0.0744.
As for CATATGAC, the figure is 0.0954.
As for ACCCCATG, the binding signal (normalized occupancy) stood at 0.102.
With ATAGCGTA, the binding signal (normalized occupancy) is 0.0819.
The value for GACCCAGC was 0.0741.
